The results in this text go back to PubChem BioAssay AID463173 (ICCB-Longwood Screening Facility, Harvard Medical School, 2010).

SMILES strings stand for the structures. The whole screen tested about 52,000 compounds, of which about 1,700 (3.3%) were called active. Rule as the data show it: active = survival mostly below about 52% (no sharp cut-off); inactive = mostly above about 56%. The list shows a part of the results.

For the assay, the system named is Wild type. Put plainly: growth inhibition of S. aureus wild type versus tarO mutant, primary screen, teichoic acid synthesis inhibitors, RN4220, OD600 (AID 463173). To be noted: S. aureus RN4220 wild type/DeltatarO growth, OD600, 18 h, stronger effect = lower value, screened at 18.75 µg/mL (by protocol).
With `Cc1oc2ccc(O)c(CN3CCN(C)CC3)c2c1C(=O)Nc1cccc(C(F)(F)F)c1`, the survival was inactive: 92%.

`O=C(CSc1nc2c([nH]c3ccccc32)c(=O)n1-c1cccc(Cl)c1)N1CCOCC1`: the survival was inactive: 65%.

Turning to `CCCCCC(=O)Nc1ccc(NC(=O)c2cc3ccccc3o2)c(OC)c1`, the survival was inactive: 91%.

As for `COc1cccc(CNC(=O)C2(c3cccs3)CCOCC2)c1`, the survival is inactive: 73%.

Turning to `CC(C)c1nc2n(n1)C1(CCCCC1)[C@@H]1CCCC[C@@H]1N2`, the survival was inactive: 123%.

For the molecule `CCOC(=O)c1c(NC(=O)CSc2cn(CCNC(=O)c3ccccc3OC)c3ccccc23)sc2c1CCC2`, the survival is inactive: 152%.

For `COc1ccc(-c2nc3c4ccccc4n(CC(=O)N4CCN(c5ccc(F)cc5)CC4)c(=O)n3n2)cc1`, the survival was inactive: 127%.

As for `CCOc1ccc(-n2c(CC)nc3c(cnn3-c3ccc(Cl)cc3)c2=O)cc1`, the survival was inactive: 63%.

Regarding `O=C(Cn1c(=O)c2ccccc2n(CC(=O)Nc2ccc(F)cc2)c1=O)NCCc1ccccc1`, the survival is inactive: 127%.

Turning to `Cc1cccc(Cn2c(C)c(CNC3CCCCCC3)c(C(=O)O)c2C)c1`, the survival is inactive: 88%.

With `COc1c(Cl)cc(C(=O)N(Cc2ccc(C)o2)C2CCS(=O)(=O)C2)cc1Cl` (stereo not given), the survival was inactive: 91%.

On to `Cc1oc(-c2cccc(Cl)c2)nc1CN1CCCC(C(=O)N2CCN(c3ccc(F)cc3)CC2)C1` (stereo not given), for which the survival was inactive: 130%.

In the case of `COc1ccc(OC)c(S(=O)(=O)N2CCC(C(=O)NCCC3=CCCCC3)CC2)c1`, the survival was inactive: 104%.

As to `COc1cccc(C(=O)c2cn(CC(=O)NCCc3ccccc3)c3nc(C)ccc3c2=O)c1`, the survival is inactive: 64%.

For `CCCN(CCC)CCCNC(=O)Cn1cc2c(n1)-c1c(oc(C(=O)N3CCCC3)c1C)CC2`, the survival was inactive: 90%.

For the molecule `Cc1[nH]c(=O)[nH]c(=O)c1NC(=O)c1ccccc1`, the survival was inactive: 115%.

Turning to `CCCNC(=O)C(CC)n1nc(CC)n2c(cc3oc(C)cc32)c1=O` (stereo not given), the survival was inactive: 113%.

Take `CCOC(=O)c1cc2c(=O)n3ccccc3nc2n(CC2CCCO2)c1=NC(=O)c1ccc(OC)cc1OC` (stereo not given): the survival was inactive: 70%.

For the molecule `O=C(OC1CSc2nc3ccccc3n2C1)c1ccccc1Cl` (stereo not given), the survival was inactive: 121%.

In the case of `CCOc1ccc(NC(=O)NCc2ccc3c(c2)CCN3C(C)=O)cc1`, the survival is inactive: 83%.

On to `Cc1cc(C)n(-c2nc3ccccc3nc2N2CCN(c3cccc(C)c3C)CC2)n1`, for which the survival is active: -1%.

Take `COc1cccc(NC(=O)Cn2c(=O)n(CCc3ccccc3)c(=O)c3c4c(sc32)CN(C(C)=O)CC4)c1`: the survival was inactive: 78%.

As for `CCCNC(=O)C1CCN(S(=O)(=O)c2ccccc2)CC1`, the survival is inactive: 94%.

For `Cc1ccc(C(=O)c2oc3ccccc3c2NC(=O)COc2ccccc2Cl)cc1`, the survival was inactive: 118%.

On to `COCCNC(=S)N1CCC(NC(=O)Nc2ccc(F)cc2)CC1`, for which the survival was inactive: 110%.

Turning to `CCS(=O)(=O)N1CCC(NC(=O)C(Cc2ccc(OC)c(OC)c2)NC(C)=O)CC1` (stereo not given), the survival was inactive: 86%.

For the molecule `CCc1cccc(NC(=O)c2nc(-c3ccncc3)no2)c1`, the survival is inactive: 101%.

As to `CCOc1ccc(C(=O)Nc2ccc(-c3nc4cc(C(C)C)ccc4o3)cc2)cc1Cl`, the survival was inactive: 90%.

For the molecule `COc1ccc(C2=NN(CC(=O)NCc3ccccc3Cl)C(=O)CC2)cc1`, the survival is inactive: 153%.

For `Cc1ccc(CCNC(=O)c2c(C)oc3ncnc(N4CCOCC4)c23)cc1`, the survival was inactive: 131%.

`Fc1cccc(NCc2cccn2-c2nnc(N3CCOCC3)s2)c1`: the survival was inactive: 77%.

`COc1cccc(CNC(=O)N2CCC(CN3CCC(C)CC3)CC2)c1`: the survival is inactive: 81%.

On to `Cc1ccc(NCc2cccn2-c2nnc(N3CCC(C(=O)NCCc4ccccc4)CC3)s2)cc1`, for which the survival was inactive: 85%.

As for `Cc1ccc(-c2cc(C(F)F)n3ncc(C(=O)NCC4CCCO4)c3n2)cc1` (stereo not given), the survival was inactive: 115%.

On to `Cc1ccc(CN(C(=O)COc2ccc(C(C)(C)C)cc2)C2CCS(=O)(=O)C2)o1` (stereo not given), for which the survival was inactive: 85%.

`COc1ccc(-c2c3c(nc4sc(C(=O)Nc5ccc(Cl)cc5)c(N)c24)CC(C)(C)CC3=O)cc1`: the survival was inactive: 92%.

For `COc1cc2cc(CNc3ccc(C)cc3)c(=O)n(CC(=O)Nc3ccc(C(C)C)cc3)c2cc1OC`, the survival was inactive: 118%.

Turning to `COc1ccc(NC(=O)CSc2nc(-c3ccc(OC)cc3)[nH]c2-c2ccc(F)cc2)cc1`, the survival is inactive: 92%.

For `COc1ccccc1NC(=O)c1ccccc1NC(=O)c1ccccc1`, the survival is inactive: 56%.

With `CN(C)c1ccc(CNC(=O)CCC(=O)N2Cc3ccccc3Oc3ncccc32)cc1`, the survival was inactive: 77%.

For the molecule `CCn1ccc2cc(S(=O)(=O)N3CCC(C(=O)NCCc4ccc(SC)cc4)CC3)ccc21`, the survival is inactive: 99%.

Turning to `Clc1ccc(CNc2nc3ccccc3c3nc(-c4cccnc4)nn23)cc1`, the survival was inactive: 86%.

Turning to `CCc1cccc(C)c1NC(=O)CN1C(=O)c2c(c3ccccc3n2C)C1c1ccc(OC)cc1` (stereo not given), the survival is inactive: 70%.

For the molecule `COCCc1nn2c(=O)cc(COC(=O)c3cccs3)nc2s1`, the survival is inactive: 90%.

In the case of `Cc1occc1C(=O)NN=C1c2ccccc2-c2ccccc21`, the survival was inactive: 121%.

For the molecule `CCOc1ccccc1NC(=O)CN(CCc1ccccc1)S(=O)(=O)c1ccc(C)cc1`, the survival is inactive: 101%.

As for `Cn1nnc2c(N3CCCCC3)ncnc21`, the survival was inactive: 88%.

`COc1cccc(CCNC(=O)c2c(O)nc3cc(C)ccn3c2=O)c1`: the survival is inactive: 83%.

In the case of `Cc1c(NC=O)c(=O)n(-c2ccccc2)n1C`, the survival was inactive: 107%.

As for `COc1ccc(-c2nc(CCNC(=O)c3cccs3)cs2)cc1OC`, the survival is inactive: 159%.

Take `CCCCN(C)C(=O)CN1C(=O)CCn2nc(-c3cn(C)c4ccccc34)cc21`: the survival was inactive: 128%.

In the case of `CCc1ccccc1NC(=O)C(NS(=O)(=O)c1ccc2c(c1)CCC(=O)N2)c1ccccc1` (stereo not given), the survival is inactive: 83%.

As to `COCCCNC(=O)Nc1cc(C(=O)NCc2ccc(OC)cc2)ccc1N1CCCC1`, the survival was inactive: 93%.

On to `Cc1ccc2c(c1)-c1c(ssc1=S)C(C)(C)N2C(=O)CN1CCOCC1`, for which the survival was inactive: 124%.

With `COC(=O)c1ccccc1NC(=O)c1ccc2c(c1)CCN2S(=O)(=O)c1ccc(C)cc1`, the survival was inactive: 87%.

For `O=c1cc(-c2ccccc2)n2c(SCc3ccc([N+](=O)[O-])cc3)nnc2[nH]1`, the survival is inactive: 71%.

As for `O=C1OC(c2ccc(Br)o2)=N/C1=C/c1ccco1`, the survival is inactive: 115%.

In the case of `Cc1ccc(NC(=O)C2=C(C(=O)O)CCCC2)cc1Br`, the survival is inactive: 94%.

As to `O=C(O)Cn1nc(N2CCN(c3ccc(F)cc3)CC2)ccc1=O`, the survival was inactive: 94%.

As to `CCc1ccc(C(=O)c2cnc3ccc(C)cc3c2S(=O)(=O)c2ccc(OC)cc2)cc1`, the survival is inactive: 128%.

Take `C=CCN1C=C/C(=C\C=C(C#N)C#N)c2ccccc21`: the survival was inactive: 102%.

As to `COc1cc(OC)c(NC(=O)C2=C(C)C(=O)OC23CCCCC3)cc1Cl`, the survival is inactive: 82%.

Take `CC(C)(O)c1cc(=N)sc2nc3ccccc3n12`: the survival was inactive: 107%.

`COc1ccccc1CNC(=O)c1cc(Sc2cccc(Cl)c2)nc2ccccc12`: the survival was inactive: 128%.

Turning to `O=C(CCCn1c(=O)c2sccc2n(Cc2ccc(F)cc2Cl)c1=O)NCc1ccc2c(c1)OCO2`, the survival was inactive: 90%.

In the case of `CCCCc1ccc(C(=O)Nc2ccc3nc(N(CC)CC)cc(C)c3c2)cc1`, the survival is inactive: 118%.

For the molecule `COc1ccc2cc(CNc3ccc(C)cc3)c(=O)n(CC(=O)Nc3ccc(OC)c(Cl)c3)c2c1`, the survival was inactive: 70%.

Consider `Cc1ccc2c(c1)N(C(=O)N1CCC(C(=O)NCCC3=CCCCC3)CC1)CC(C)O2` (stereo not given), for which the survival is inactive: 85%.

With `Cc1c(C(=O)N2CCCC2)oc2c1-c1nn(CC(=O)NCc3cccc(F)c3)cc1CC2`, the survival is inactive: 85%.

For `CCNC(=O)c1cnc2sc(N3CCC(C)CC3)nn2c1=O`, the survival was inactive: 83%.

`O=C(Nc1cccc(Cl)c1)c1ccc2nc(Cc3ccccc3)oc2c1`: the survival was inactive: 71%.

Consider `OCc1cnc(SCc2cccc(F)c2)n1Cc1ccc(F)cc1`, for which the survival is inactive: 159%.

For `Cc1ccccc1Nc1ncnc2c1c(-c1ccccc1)cn2-c1ccc(F)cc1`, the survival was inactive: 71%.

As for `O=C(CCc1nc2cccnc2n1Cc1ccccc1)NCc1cccc(Cl)c1`, the survival is inactive: 71%.

For `Cc1ncc(COC(=O)C(C)C)c2cc(C(=O)Nc3ccccc3C(F)(F)F)c(=O)oc12`, the survival was inactive: 159%.

Consider `CCN(CC)CCCNC(=O)CCc1c(C)n(CC)c2cc(-c3ccccc3OC)nn2c1=O`, for which the survival was inactive: 78%.

Turning to `CCCCn1c(CNC(=O)C23CC4CC(CC(C4)C2)C3)nnc1SCC(=O)Nc1ccccc1`, the survival was inactive: 85%.

As for `Cc1cccc(N2C(=O)CS(=O)(=O)C23C(=O)N(C)c2ccccc23)c1` (stereo not given), the survival was inactive: 77%.

As to `CN1c2ccc(Cl)cc2-c2nc(SCC(=O)Nc3cc(F)ccc3F)ncc2S1(=O)=O`, the survival was inactive: 68%.

In the case of `COC(=O)NNC(=O)C1CCC(C)CC1` (stereo not given), the survival is inactive: 68%.

On to `O=C(c1ccco1)N1CCN(c2nc3ccc(Cl)cc3s2)CC1`, for which the survival was inactive: 78%.

Regarding `CCn1ccc2cc(S(=O)(=O)N3CCC(C(=O)NCCOC)CC3)ccc21`, the survival was inactive: 47%.

Regarding `CCc1nc2ccc(C(=O)NCCc3ccc(OC)c(OC)c3)cc2nc1CC`, the survival was inactive: 78%.

As for `CCOc1ccccc1CNC(=O)c1[nH]c2ccccc2c1Sc1ccccc1`, the survival was inactive: 81%.

On to `NC(=S)N(c1ccccc1)c1ccccc1`, for which the survival is inactive: 108%.

`CCN1CCN(CCCNC(=O)c2cc3c(s2)-c2c(C)cccc2OC3)CC1`: the survival is inactive: 87%.

With `O=S(=O)(c1ccc(-c2cc(C(F)(F)F)on2)s1)N1CCN(c2cccc(Cl)c2)CC1`, the survival was inactive: 128%.

Take `Cc1nn2c(C(F)(F)F)cc(-c3ccc(OC(C)C)cc3)nc2c1C#N`: the survival is inactive: 75%.

For the molecule `CCC(CC)NC1CCN(Cc2ccccc2)CC1`, the survival was inactive: 98%.

Regarding `Cc1ccccc1OCC(=O)Nc1ccccc1C(=O)OCc1cc(=O)n2c(C)csc2n1`, the survival is inactive: 73%.
